Molecular target: T1, human TGF-β1 (R&D Systems) (human, UniProt P01137 fragment)
T1 construct: Bought reagent used in the direct ELISA
Assay: direct ELISA of transfected HEK293T supernatant with human TGF-β1; the grade is printed as the payload's expression level

T1 sequence (P01137 279-390 limits assumed): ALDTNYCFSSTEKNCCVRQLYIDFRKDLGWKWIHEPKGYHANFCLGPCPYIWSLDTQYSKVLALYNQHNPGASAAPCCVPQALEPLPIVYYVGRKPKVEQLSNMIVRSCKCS

B1: human soluble TGFβ receptor II fused with a human IgG1 Fc (Fc fusion)
chain: TIPPHVQKSVNNDMIVTDNNGAVKFPQLCKFCDVRFSTCDNQKSCMSNCSITSICEKPQEVCVAVWRKNDENITLETVCHDPKLPYHDFILEDAASPKCIMKEKKKPGETFFMCSCSSDECNDNIIFSEEYNTSNPD[not shown - human IgG1 Fc]
notes: Tested as HEK293T supernatant; also called hu sTGFβRII-Fc
  binding result: binds
